Measurements as given in paper PMC4336329 (PLoS ONE, 2015).
Among all 310,000 compounds or so, about 2,200 (0.71%) showed an effect of 50% or more. The effect is printed as a negative number. Some of the results follow.

What follows are compounds tested against human ether-à-go-go-related gene (hERG) potassium channel (human, UniProt Q12809) (assay: primary screen, population patch clamp on CHO cells stably expressing hERG).
Sequence of human ether-à-go-go-related gene (hERG) potassium channel (Q12809 whole entry, looked up): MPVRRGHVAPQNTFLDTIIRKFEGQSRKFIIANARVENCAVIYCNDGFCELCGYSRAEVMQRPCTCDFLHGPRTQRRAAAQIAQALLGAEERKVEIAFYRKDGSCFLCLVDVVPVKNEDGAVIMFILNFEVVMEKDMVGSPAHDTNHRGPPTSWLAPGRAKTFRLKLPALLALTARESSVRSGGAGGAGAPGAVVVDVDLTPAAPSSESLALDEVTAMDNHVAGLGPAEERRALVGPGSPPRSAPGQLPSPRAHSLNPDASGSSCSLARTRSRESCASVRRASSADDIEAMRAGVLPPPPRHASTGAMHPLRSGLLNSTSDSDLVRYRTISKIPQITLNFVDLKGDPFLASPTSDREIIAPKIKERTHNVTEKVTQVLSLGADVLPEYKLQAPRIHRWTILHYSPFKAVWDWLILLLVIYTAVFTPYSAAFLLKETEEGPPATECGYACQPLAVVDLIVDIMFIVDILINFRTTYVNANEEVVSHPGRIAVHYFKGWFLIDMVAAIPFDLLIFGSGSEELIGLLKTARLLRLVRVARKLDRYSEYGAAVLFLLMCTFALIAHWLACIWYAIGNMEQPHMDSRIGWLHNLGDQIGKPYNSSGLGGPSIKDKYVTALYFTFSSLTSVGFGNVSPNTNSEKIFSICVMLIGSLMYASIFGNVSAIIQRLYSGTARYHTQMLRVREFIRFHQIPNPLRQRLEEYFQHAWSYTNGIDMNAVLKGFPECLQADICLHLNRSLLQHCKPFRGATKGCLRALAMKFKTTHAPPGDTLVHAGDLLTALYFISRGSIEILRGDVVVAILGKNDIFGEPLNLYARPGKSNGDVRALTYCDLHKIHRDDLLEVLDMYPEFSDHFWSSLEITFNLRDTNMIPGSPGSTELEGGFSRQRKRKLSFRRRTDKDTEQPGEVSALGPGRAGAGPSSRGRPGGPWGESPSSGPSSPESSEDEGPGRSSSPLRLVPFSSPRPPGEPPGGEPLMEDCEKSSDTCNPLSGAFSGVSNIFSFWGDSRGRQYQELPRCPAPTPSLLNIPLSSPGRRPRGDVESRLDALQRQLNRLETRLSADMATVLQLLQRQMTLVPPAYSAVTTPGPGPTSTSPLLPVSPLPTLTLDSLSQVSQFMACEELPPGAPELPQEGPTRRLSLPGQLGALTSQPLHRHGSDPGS

First: O=C(NC(=S)Nc1cccc2ncccc12)c1cccs1
Second: COc1ccc(Nc2ncccc2C(=O)Nc2ccccc2)cc1
The “hERG current change (%, negative = inhibition) at 1uM” value of the first is lower: -8.67% for the first, 6.89% for the second.

Going from `COc1ccc(NC(=O)Nc2ccccc2F)c(C)c1` to `COc1ccc(NC(=O)c2ccc(C(=O)c3cc(OC)ccc3OC)cc2)cc1`, the “hERG current change (%, negative = inhibition) at 1uM” value falls from 10.3% to 3.08%.

First: NC(=O)c1ccc(NC(=O)c2ccc(CN3CCOCC3)cc2)cc1
Second: Cc1ccc(C(=O)Nc2cccc(-c3ccc(N4CCOCC4)nn3)c2)cc1
The “hERG current change (%, negative = inhibition) at 1uM” value of the first is lower: 0.733% for the first, 4.57% for the second.

Going from `CCOc1cc(C=O)cc(N=Nc2cccc([N+](=O)[O-])c2)c1O` to `CCOc1ccc(NC(=O)Cn2c(=O)oc3cc(Cl)ccc32)cc1`, the “hERG current change (%, negative = inhibition) at 1uM” value falls from 14.2% to 12.4%.

Compared with `Cl.O=C(CN1CCN(Cc2ccccc2)CC1)N1CCCCCC1`, `O=C(c1ccc(CN2CCOCC2)cc1)N1CCC(Cc2ccccc2)CC1` is higher in “hERG current change (%, negative = inhibition) at 1uM” value: -3.64% for the first, -0.0045% for the second.

Going from `Cc1ccc(NC(=O)Cn2cccc2)cc1C` to `O=C(Nc1cccc(O)c1)c1cnn2cccnc12`, the “hERG current change (%, negative = inhibition) at 1uM” value falls from 0.532% to -2.94%.

Compared with `COc1ccc(CNC(=O)c2cccnc2SC)cc1OC`, `COc1ccc(C(=O)CSc2nc(SC)ns2)cc1OC` is lower in “hERG current change (%, negative = inhibition) at 1uM” value: 13.3% for the first, 7.49% for the second.

Going from `O=C(O)CCC(=O)OCC1CCCO1` (stereo not shown) to `Cc1cccc(N(CC(=O)NCC2CCCO2)C(=O)CCC(=O)Nc2cc(C)on2)c1` (stereo not shown), the “hERG current change (%, negative = inhibition) at 1uM” value rises from 2.46% to 15.6%.

Compared with `O=C(NNC(=S)NC1CCCCC1)c1cccs1`, `CC1CCCN(C(=O)CNC(=O)c2cccs2)C1` (stereo not shown) is higher in “hERG current change (%, negative = inhibition) at 1uM” value: 2.13% for the first, 5.23% for the second.

First: CCN(CC)C(CNC(=O)CSc1nnnn1-c1cccc(F)c1)c1ccco1 (stereo not shown)
Second: Cn1cccc1Cc1nnc(SCC(=O)Nc2cccc(Cl)c2)n1-c1ccc(F)cc1
The “hERG current change (%, negative = inhibition) at 1uM” value of the first is higher: 16.8% for the first, -10.5% for the second.

Compared with `Clc1ccc(-c2nnc(NC3=NCCCCC3)o2)cc1`, `CC(=O)Nc1ncnc2c1c(-c1ccc(Cl)cc1)nn2C(C)(C)C` is lower in “hERG current change (%, negative = inhibition) at 1uM” value: 10% for the first, 4.46% for the second.

First: COc1ccc(/C=C/C(=O)Nc2ccc3c(c2)OCCO3)cc1OC
Second: COc1ccc(N2C(=O)CSC2c2ccc3c(c2)OCO3)c(OC)c1 (stereo not shown)
The “hERG current change (%, negative = inhibition) at 1uM” value of the first is higher: 11.3% for the first, 6.03% for the second.

Compared with `COc1ccc(CCNC(=O)c2nnc(CS(=O)(=O)c3ccccc3)o2)cc1OC`, `CCOC(=O)C(C)Oc1cccc2c(=O)n(CC(=O)NCCc3ccccc3)ccc12` (stereo not shown) is lower in “hERG current change (%, negative = inhibition) at 1uM” value: 0.362% for the first, -0.505% for the second.

Going from `Cc1cc(Br)cc2c1NC(=O)C2(c1c(C)n(C)n(-c2ccccc2)c1=O)c1c(C)n(C)n(-c2ccccc2)c1=O` to `COC(=O)c1ccc(S(=O)(=O)N2CCN(C(c3ccccc3)c3ccccc3)CC2)n1C`, the “hERG current change (%, negative = inhibition) at 1uM” value falls from 9.88% to 4.98%.

Going from `O=C(COC(=O)C1CCN(S(=O)(=O)c2ccccc2)CC1)NC(=O)c1ccc(OC(F)F)cc1` to `O=C(NCCc1ccccc1)C1CCN(C(=O)Nc2ccccc2)CC1`, the “hERG current change (%, negative = inhibition) at 1uM” value rises from 9.75% to 13.3%.

First: CCc1ccc(CN(C)C(=O)CCc2nnc(-c3ccc(-c4ccccc4)cc3)o2)nc1
Second: O=C(CCc1ccccc1)NCc1ccc2c(c1)OCO2
The “hERG current change (%, negative = inhibition) at 1uM” value of the first is lower: -11.4% for the first, 8.92% for the second.

Compared with `CCOc1cc(CNc2ccc(N3CCCCC3)cc2)cc(Br)c1OCC(=O)NC(C)(C)C`, `CC1(C)Cc2c(cnn2-c2ccc(F)cc2)C(NC(=O)CCN2CCCCC2=O)C1` (stereo not shown) is higher in “hERG current change (%, negative = inhibition) at 1uM” value: 0.842% for the first, 10.4% for the second.

Going from `CC1(C)C(=O)C2(CCCCC2)C(=O)OC1c1ccc(O)cc1` (stereo not shown) to `O=C(CN1C(=O)NC2(CCCCCC2)C1=O)NCc1cccs1`, the “hERG current change (%, negative = inhibition) at 1uM” value falls from 9.66% to 0.855%.

Going from `CN(C)c1ccc(C2NCC(CCl)O2)cc1` (stereo not shown) to `CCN(CC)c1ccc(C(=S)NC2CCCCC2)cc1`, the “hERG current change (%, negative = inhibition) at 1uM” value falls from 8.38% to 6.45%.

Going from `O=C(CSc1ncccn1)NCc1ccccc1` to `O=c1oc(Cc2ccccc2)nc2ccccc12`, the “hERG current change (%, negative = inhibition) at 1uM” value rises from 8.59% to 14.1%.

Compared with `COc1cnc(SCc2c(Cl)cccc2Cl)nc1Cl`, `CC(C)Oc1nc(-c2ccccc2Cl)nc2ccccc12` is higher in “hERG current change (%, negative = inhibition) at 1uM” value: 6.81% for the first, 27% for the second.

Going from `Cc1ccc(C(=O)NC2CC3CCC(C2)N3)cc1` (stereo not shown) to `Cc1ccc(C2CCN(C(=O)Nc3ccccc3)C2)cc1` (stereo not shown), the “hERG current change (%, negative = inhibition) at 1uM” value falls from 14.8% to 11.5%.

Going from `Cc1cc(-c2nnnn2-c2cc(Cl)cc(Cl)c2)no1` to `Cc1cc(Br)c(NC(=O)C(C)Sc2nnnn2C)c(Br)c1` (stereo not shown), the “hERG current change (%, negative = inhibition) at 1uM” value falls from 6.64% to 6.21%.

First: COc1cc(O)c2c(c1)COC2=O
Second: Cn1c(=O)oc2cc(S(=O)(=O)N3CCc4ccccc43)ccc21
The “hERG current change (%, negative = inhibition) at 1uM” value of the first is higher: 11.7% for the first, 4.57% for the second.

First: O=C(CSc1nc2ccccc2c(=O)n1NC(=O)Cc1ccccc1)NCCc1ccccc1
Second: CSc1nc2ccccc2n1C(=O)Oc1ccccc1
The “hERG current change (%, negative = inhibition) at 1uM” value of the first is lower: -4.49% for the first, 3.33% for the second.

Going from `Cc1cccc(C(=O)c2c[nH]cc2-c2ccccc2)c1` to `Cc1ccc(-c2nn(-c3ccccc3)cc2C(=O)NN2CCN(C)CC2)cc1.Cl`, the “hERG current change (%, negative = inhibition) at 1uM” value rises from 3.09% to 11.2%.

Going from `Cc1ccc(CNC(=O)CCC2CCCN(Cc3cccc4cccnc34)C2)o1` (stereo not shown) to `Cc1ccc(C)c(Cn2c(=O)n(CCC(=O)NCc3ccco3)c(=O)c3ccccc32)c1`, the “hERG current change (%, negative = inhibition) at 1uM” value rises from -27.4% to -3.31%.

Compared with `CCCCn1c(SCC(=O)N2CCCC2)nc2cc(S(N)(=O)=O)ccc21`, `CCCCn1c(SCC2CCCO2)nc2cc(S(N)(=O)=O)ccc21` (stereo not shown) is lower in “hERG current change (%, negative = inhibition) at 1uM” value: 11.8% for the first, -9.67% for the second.

Going from `Cl.O=S(=O)(CCC1CCCCN1)c1ccccc1` (stereo not shown) to `C[N+](C)(N)CCOC(=O)C(O)(c1ccccc1)C1CCCCC1.[Br-]` (stereo not shown), the “hERG current change (%, negative = inhibition) at 1uM” value falls from 12.8% to 0.351%.

Going from `COc1cc(CN2CCNC(=O)C2CC(=O)NCCCN2CCOCC2)cc(OC)c1` (stereo not shown) to `CCOC(=O)C1CCN(C(=O)CCCCn2c(=O)[nH]c3ccccc3c2=O)CC1`, the “hERG current change (%, negative = inhibition) at 1uM” value falls from 11.6% to -5.65%.

Compared with `CCCCN(C)CCNC(=O)c1c[nH]c2ccc(S(=O)(=O)N(CC)CC)cc2c1=O`, `COc1c(/C=C2/C(=O)NC(=O)N(C)C2=O)c(CCN(C)C(=O)c2ccccc2)cc2c1OCO2` is lower in “hERG current change (%, negative = inhibition) at 1uM” value: 11.3% for the first, 9.9% for the second.

First: O=C(NC1CC1)C1CCN(c2nc3ccccc3s2)CC1
Second: CC(=O)Nc1ccc(NC(=O)C2CCN(C(=O)NC3CCCCC3)CC2)cc1
The “hERG current change (%, negative = inhibition) at 1uM” value of the first is lower: 6.3% for the first, 14.4% for the second.

Going from `CN(C)c1ccc(C(CNS(=O)(=O)c2ccc3ccccc3c2)N2CCOCC2)cc1` (stereo not shown) to `Cc1cc2nnc(SCC(=O)Nc3cc(S(=O)(=O)N4CCOCC4)ccc3Cl)n2c2ccccc12`, the “hERG current change (%, negative = inhibition) at 1uM” value rises from 1.96% to 6.9%.

Compared with `O=C(NCc1ccco1)c1cc2nc(-c3cccs3)cc(C(F)(F)F)n2n1`, `CSc1nc(NCc2ccco2)c2c3c(sc2n1)CN(C)CC3` is lower in “hERG current change (%, negative = inhibition) at 1uM” value: -5.2% for the first, -38.8% for the second.

Compared with `CN(C)CCCN(C(=O)c1nc2ccccc2s1)c1nc2ccc(F)cc2s1.Cl`, `CC(=O)Nc1ccc(S(=O)(=O)N(C)c2nc3ccccc3nc2Cl)cc1` is higher in “hERG current change (%, negative = inhibition) at 1uM” value: 8.02% for the first, 8.12% for the second.

Compared with `CC(C(=O)N1CCCCC1)n1ncn2cccc2c1=O` (stereo not shown), `CN1CCN(C(=O)C(Cc2ccccc2)NS(=O)(=O)c2ccc3c(c2)CCC(=O)N3)CC1` (stereo not shown) is lower in “hERG current change (%, negative = inhibition) at 1uM” value: 7.52% for the first, -3.22% for the second.

Going from `O=C(CSc1cccc[n+]1[O-])Nc1cccc(Oc2ccccc2)c1` to `O=C(CCc1nc2ccccc2c(=O)[nH]1)Nc1ccc(F)c([N+](=O)[O-])c1`, the “hERG current change (%, negative = inhibition) at 1uM” value rises from 4.77% to 10.2%.

Compared with `COC(=O)CN1C(=S)N(C)C(=O)/C1=C/c1cccs1`, `N#CCCn1cc(C(=O)O)c(-c2cccs2)n1` is higher in “hERG current change (%, negative = inhibition) at 1uM” value: 8.48% for the first, 18.4% for the second.

Compared with `CCc1nnc(NC(=O)CN2C(=O)/C(=C/c3ccc(OC)c(OC)c3)SC2=S)s1`, `COc1cc(C(=O)NC(=S)NNC(=O)c2ccc3c(c2)OCO3)cc(OC)c1OC` is higher in “hERG current change (%, negative = inhibition) at 1uM” value: 3.13% for the first, 6.72% for the second.

Going from `CC1CC(=O)Nc2ccccc2N1S(=O)(=O)c1ccc(C(F)(F)F)cc1` (stereo not shown) to `Cc1ccc(S(=O)(=O)N2CCCC2=O)c(C)c1N(C)S(C)(=O)=O`, the “hERG current change (%, negative = inhibition) at 1uM” value rises from 6.72% to 16.9%.

Going from `O=C(NCCC1=CCCCC1)N[C@@H](Cc1ccccc1)C(=O)O` to `CCN(CC(=O)NCc1cccs1)C(=O)COc1ccccc1C#N`, the “hERG current change (%, negative = inhibition) at 1uM” value rises from 9.13% to 11.6%.

Going from `CC1(C)CC(=O)C(C=NCCN2CCN(C(=O)CCl)CC2)=C(O)C1` to `CC1CCN(C(=O)c2[nH]cnc2C(=O)Nc2ccc(Cl)cc2)CC1`, the “hERG current change (%, negative = inhibition) at 1uM” value rises from 8.35% to 24.6%.

Going from `Cc1ccc(/C=C(\C#N)C(=O)Nc2c(C)cccc2C)s1` to `CCOC(=O)C1=C(O)CCn2c1nc1ccccc12`, the “hERG current change (%, negative = inhibition) at 1uM” value falls from 7.54% to 0.404%.

Compared with `CCNC(=S)N/N=C/c1cccc(/C=N/NC(=S)NCC)c1`, `CNC(=O)NC(=O)COC(=O)/C=C/c1cccc(Br)c1` is higher in “hERG current change (%, negative = inhibition) at 1uM” value: 13% for the first, 15.8% for the second.

Compared with `CCOC(=O)C1=C(C)NC(C)=C(C(=O)OCC)C1c1ccc(Br)o1`, `CC(C)c1c(C(=O)N/N=C/c2cccc(OCc3ccc(F)cc3)c2)nnn1-c1nonc1N` is higher in “hERG current change (%, negative = inhibition) at 1uM” value: 9.3% for the first, 25.5% for the second.

With `CCC(c1n[nH]c(=S)n1-c1ccccc1)N(C)C` (stereo not shown) the “hERG current change (%, negative = inhibition) at 1uM” value was 16.3%.
